Source: the supplement of paper PMC3656093
± gives the standard deviation of the averaged measurements. In all, about 1,900 compounds were measured (“CD40L-induced NF-kB luciferase activity, plate-corrected, relative to DMSO (0) and IKK inhibitor VII (-100) controls”: median about 0.032, lowest 2% from about -26 on). Some of the results follow.

tested on: BL2-NFkB-Luc; test: CD40L-induced NF-kB luciferase activity, plate-corrected, relative to DMSO (0) and IKK inhibitor VII (-100) controls (% normalized activity); higher = more NF-kB reporter activity (less inhibition); details: 9.4 µM; stimulus: tCD40L 64 ng/ml; 4.5 h
Procedure: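 BL2 B cells with a stable NF-kB response-element luciferase reporter (BL2-NFkB-Luc), 384-well. Cells were pre-incubated with compound at 9.4 uM for 1 h at 37 C, then stimulated with 64 ng/ml trimerized CD40L for 4.5 h; luciferase was read with Steady-Glo. Signal was normalised per plate in Genedata (median DMSO neutral control = 0, median IKK inhibitor VII at 50 uM = -100) with Assay Median plate-pattern correction; duplicate plates.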

SMILES | CD40L-induced NF-kB luciferase activity
Nc1c2c(nc3ccccc13)CCCC2 | -2.63 ± 2.6
CCNC(=O)c1c(N)sc2c1CCCCC2 | 2.16 ± 2.4
O=C1OC(Nc2ccc3c(c2)OCO3)c2ccccc21 (stereo not drawn) | -15.2 ± 0.48
COc1cc2cc(C(=O)O)n(C)c2c(OC)c1OC | 2.66 ± 1.5
CCOC(=O)C(NC(C)=O)C(O)c1ccc([N+](=O)[O-])cc1 (stereo not drawn) | -1.16 ± 2.7
Nc1ccc2cn[nH]c2c1 | -3.23 ± 2.4
CCN(CC)C(=S)SSC(=S)N(CC)CC | 10.1 ± 1.5
COCCOC(=O)C1=C(N)OC2=C(C(=O)CCC2)C1c1cccnc1 (stereo not drawn) | -3.03 ± 0.28
Cc1oc(C=NNC(=O)CC2(C)OCCO2)cc1Br | -0.742 ± 2.4
c1ccc(-c2ccccn2)nc1 | -0.389 ± 1.8
CC(C)Oc1ccc(C2CC(=O)N(c3ccc(C(=O)O)cc3)C2=O)cc1 (stereo not drawn) | -3.94 ± 6.9
COc1ccc(NC(=S)NCCc2c[nH]c3ccccc23)cc1 | 1.9 ± 1.1
O=C(NCCNc1ccc(Cl)cc1[N+](=O)[O-])c1cccnc1 | 5.16 ± 4.4
C[C@]12C[C@H](O)[C@H]3[C@@H](CCC4=CC(=O)CC[C@@]43C)[C@@H]1CC[C@@H]2C(=O)CO | -19.6 ± 8.2
O=C(NC(Nc1ccccn1)C(Cl)(Cl)Cl)c1ccccc1 (stereo not drawn) | -4.69 ± 1.9
O=C(O)c1cc2cc(Cl)cc(Cl)c2oc1=O | -0.642 ± 0.68
Oc1ccc(COCc2ccccc2)c2cccnc12 | 31.8 ± 3.1
COc1cc(CNCc2ccc(OC)c(OC)c2OC)cc(OC)c1 | -9.63 ± 3.3
Nc1cccc(C(=O)O)c1 | 0.601 ± 11
CCN1C(=O)C(CC(=O)Nc2ccc(F)cc2)N(Cc2ccco2)C1=S (stereo not drawn) | -6.1 ± 1.4
COc1ccc2[nH]cc(C(=O)CCl)c2c1 | -18.7 ± 2.5
CCC(=O)Oc1ccc(/C(CC)=C(\CC)c2ccc(OC(=O)CC)cc2)cc1 | -2.86 ± 2
COc1ccc(CCNC(=O)c2ccc(Cl)cc2)cc1OC | 2.7 ± 6.7

SMILES | CD40L-induced NF-kB luciferase activity
COc1ccc2c(c1OC)C(=O)OC2C1c2c(cc3c(c2OC)OCO3)CCN1C (stereo not drawn) | 4.43 ± 1
COc1ccc(C2N3CC4(C)CN2CC(C)(C3)C4)cc1OC (stereo not drawn) | -1.8 ± 1.9
O=C(NCc1ccc(N2CCCC2=O)cc1)c1cccc(Cl)c1 | 0.303 ± 1.9
Cc1ccc2c(c1)c1c3n2CCCNC3CCC1 (stereo not drawn) | -0.763 ± 1.7
C[C@]12CC[C@@H]3c4ccc(O)cc4CC[C@H]3[C@@H]1CC[C@@H]2OC(=O)CCC(=O)O | 4.26 ± 1.1
CC(=O)N(CCC(Cc1ccccc1)c1ccco1)Cc1ccco1 (stereo not drawn) | -10.3 ± 3.9
Nc1c(C(=O)c2ccccc2)oc2ccccc12 | 17.3 ± 8.5
COc1ccc(N2C(=O)[C@@H]3[C@H](C2=O)[C@H]2c4ccccc4C=CN2[C@@H]3C(C)=O)cc1 | -2.09 ± 0.85
Cc1cc(C(C)(C)C)c(O)c(C)c1CC1=NCCN1 | -6.39 ± 2.2
CN(C)CCCN1c2ccccc2Sc2ccccc21 | 1.36 ± 1.7
Cn1c(SCC(=O)c2ccccc2)nnc1-c1ccncc1 | 11.7 ± 0.42
C[C@]12CCC(=O)C=C1[C@H](O)C[C@@H]1[C@@H]2[C@@H](O)C[C@@]2(C)[C@H]1CC[C@]2(O)C(=O)CO | -8.7 ± 4.6
CCc1cc2c(=O)c(-c3ccc4c(c3)OCCO4)coc2c(CN2CCCCC2C)c1O (stereo not drawn) | 17.3 ± 6.1
Cc1ccc(Cl)c(OCCCN(C)Cc2ccccc2)c1 | -1.15 ± 2.5
CC(CCc1ccccc1)NCC(O)c1ccc(O)c(C(N)=O)c1 (stereo not drawn) | 5.01 ± 0.12
O=C(O)c1cccnc1Nc1cccc(C(F)(F)F)c1 | -2.71 ± 10
COc1ccc(C(Cl)=C(c2ccc(OC)cc2)c2ccc(OC)cc2)cc1 | 5.26 ± 4.2
Cc1oncc1C(=O)Nc1ccc(C(F)(F)F)cc1 | 4.6 ± 2.1
CC[N+](C)(C)Cc1ccccc1Br | -1.11 ± 9
O=C(NCc1ccccc1Cl)NC(=O)c1ccccc1 | 7.34 ± 5.7
CC1(C)Oc2ccc(C#N)cc2[C@@H](N2CCCC2=O)[C@@H]1O | -6.01 ± 11
CCN1C(=O)C(CC(=O)Nc2ccc(OC)cc2)N(CCc2ccc(F)cc2)C1=S (stereo not drawn) | -1.13 ± 4.2
c1ccc2c(c1)CCOC2CNCCCN1CCCCC1 (stereo not drawn) | -0.411 ± 1.1

SMILES | CD40L-induced NF-kB luciferase activity
OCCC1CN(Cc2nc(-c3ccccc3)cs2)CCN1Cc1ccc(F)cc1 (stereo not drawn) | -9.83 ± 5.8
N/C(Cc1ccc(Cl)cc1Cl)=N\OC(=O)c1ccc(Br)o1 | -0.0921 ± 1.1
CN(Cc1c(C(=O)N(C)Cc2ccccc2)nc2ccccn12)CC1Cc2ccccc2O1 (stereo not drawn) | -6.37 ± 6.3
[N-]=[N+]=N[C@@H]1C[C@H](n2ccc(=O)[nH]c2=O)O[C@@H]1CO | 2.68 ± 1.4
Nc1nc(Cl)nc2c1ncn2[C@H]1C[C@H](O)[C@@H](CO)O1 | 0.0575 ± 1.9
O=C(O)[C@@H](O)c1ccccc1 | -1.47 ± 0.027
CC(=O)c1c(N)nc2n(c1=O)CCCCC2 | -0.416 ± 0.94
CC/C(=C1/C(=O)CC(C)(C)C(C(=O)OC)C1=O)N1CCCC1 (stereo not drawn) | -2.64 ± 9.9
CCN(CC)CCN1C(=O)C(=O)/C(=C(/O)c2c(C)[nH]c(C(=O)OC)c2C)C1c1cccnc1 (stereo not drawn) | 0.413 ± 0.55
N=C(N)c1ccc(OCCCCCOc2ccc(C(=N)N)cc2)cc1 | -3.31 ± 2.2
CC(=O)C1=C(O)C(=O)N(CC(=O)O)C1c1ccccc1Cl (stereo not drawn) | 3.2 ± 3.2
CCCCC(=O)O[C@H]1CC[C@H]2[C@@H]3CCc4cc(O)ccc4[C@H]3CC[C@]12C | 2.5 ± 0.8
COc1ccccc1C(=O)Nc1cc2cc(Br)ccc2oc1=O | 9.74 ± 0.74
CCOC(=O)C(=O)Nc1ccc(Oc2ccccc2)cc1 | 0.906 ± 0.051
Fc1ccc(C(c2ccc(F)cc2)N2CCN(C/C=C/c3ccccc3)CC2)cc1 | -3.89 ± 5.2
COc1ccc(CCN(C)CCCC(C#N)(c2ccc(OC)c(OC)c2)C(C)C)cc1OC (stereo not drawn) | -0.19 ± 0.34
COC(=O)CN1C(=S)N(c2ccc(F)cc2)C(=O)C1CC(=O)Nc1ccccc1 (stereo not drawn) | 0.435 ± 0.71
CCCc1cc(=O)[nH]c(=S)[nH]1 | -2.77 ± 6.7
O=C(NC1CC1)C1CCN(C2CCN(C(=O)Cc3ccc(F)cc3)CC2)CC1 | -4.25 ± 1.5
Nc1cccc2nc3ccccc3cc12 | 349 ± 14
N/C(=N\OC(=O)c1cccc(Br)c1)c1ccncc1 | 2.67 ± 0.79
CC(=O)N1CCN(c2ccc(NC(=O)/C=C/c3ccccc3)cc2)CC1 | 3.56 ± 0.14
COc1ccc(-c2coc3c(CN4CCOCC4)c(O)ccc3c2=O)cc1 | 10.4 ± 3.6

SMILES | CD40L-induced NF-kB luciferase activity
CC(C)N(Cc1nccn1C)C(=O)CC1C(=O)NCCN1Cc1ccccc1C(F)(F)F (stereo not drawn) | 0.281 ± 5.4
C[C@]12CCC(=O)C=C1CC[C@@H]1[C@@H]2[C@@H](O)C[C@@]2(C)[C@H]1CC[C@]2(O)C(=O)CO | -24.3 ± 5.5
O=C(Nc1cccc(C(=O)O)c1)/C(=C\c1ccccc1)NC(=O)c1ccccc1 | 1.77 ± 1.9
O=C(O)CC(O)C(=O)O (stereo not drawn) | 1.11 ± 7.3
CNCCCC1c2ccccc2C=Cc2ccccc21 | -1.95 ± 4.2
CC(C)NC[C@@H](O)c1ccc(O)c(O)c1 | -0.798 ± 0.99
COC(=O)C1=CN(Cc2cccs2)C=C(C(=O)OC)C1c1cccc(Cl)c1 | -5.35 ± 4.1
Cc1ccc2[nH]c3c(=O)n(CCc4cnc[nH]4)cnc3c2c1 | 20.4 ± 3.4
CC(=O)[C@H]1CC[C@H]2[C@@H]3CCC4=CC(=O)CC[C@]4(C)[C@H]3CC[C@]12C | -8.04 ± 6
CO[C@@H]1O[C@@H]2COC(c3ccccc3)O[C@@H]2[C@@H](OC)[C@@H]1O (stereo partly drawn) | 2.35 ± 0.73
CC(=O)N1CCN(c2ccc(OC[C@H]3CO[C@](Cn4ccnc4)(c4ccc(Cl)cc4Cl)O3)cc2)CC1 | -8.34 ± 2.5
COc1ccc(S(N)(=O)=O)cc1C(N)=O | -2.45 ± 4.3
O=C(NCc1ccco1)/C(=C\C=C\c1ccccc1)NC(=O)c1ccccc1Br | 1.36 ± 2.9
CN(C)CCOC(c1ccccc1)c1ccccc1 | 0.0566 ± 0.086
CN1CCc2cccc3c2[C@@H]1Cc1ccc(O)c(O)c1-3 | 13.7 ± 1.1
CN1C2CCC1CC(OC(c1ccccc1)c1ccccc1)C2 (stereo not drawn) | -2.73 ± 1.3
CSCCC1NC2(C(=O)Nc3ccc(Cl)cc32)[C@@H]2C(=O)N(C3CCCC3)C(=O)[C@H]12 (stereo partly drawn) | 5.07 ± 2.4
COc1ccc(C2NC(C(=O)O)Cc3c2[nH]c2ccccc32)cc1CN1CCN(c2ccc(F)cc2)CC1 (stereo not drawn) | -1.86 ± 2.1
CCCN(CCC)S(=O)(=O)c1ccc(C(=O)O)cc1 | -9.88 ± 2.7
COc1cccc(OC)c1C(=O)Nc1nc2ccc([N+](=O)[O-])cc2s1 | 3.34 ± 5.3
C[C@]12CC[C@@H]3c4ccc(O)cc4CC[C@H]3[C@@H]1CC[C@@H]2O | -1.7 ± 2.8
CC(NC(=O)OCc1ccccc1)C(=O)N1CC(O)CC1C(=O)O (stereo not drawn) | 2.65 ± 0.093
Cn1c(=O)oc2cc(S(=O)(=O)N3CCc4ccccc4C3)ccc21 | 2.87 ± 1.3

SMILES | CD40L-induced NF-kB luciferase activity
Clc1ccc(CSC(Cn2ccnc2)c2ccc(Cl)cc2Cl)cc1 (stereo not drawn) | 1.98 ± 3.8
CC(NC(=O)c1ccc(N2CCNCC2)c([N+](=O)[O-])c1)C12CC3CC(CC(C3)C1)C2 (stereo not drawn) | 4.61 ± 5.2
CC1(C)C(=O)OC(c2cccs2)C2(CCCCC2)C1=O (stereo not drawn) | -2.53 ± 2.6
CN(C)CCN(Cc1ccccc1)c1ccccn1 | -4.72 ± 1
COc1cccc2c(=O)c3ccccc3oc12 | 58 ± 9.2
C=CCN1C(=O)c2oc3ccccc3c(=O)c2C1c1ccc(O)c(OC)c1 (stereo not drawn) | -0.791 ± 0.32
O=c1cnn([C@@H]2O[C@H](CO)[C@@H](O)[C@H]2O)c(=O)[nH]1 | 10.5 ± 4.8
COc1ccc(CC(=O)N2CC3(C)CC2CC(C)(C)C3)cc1OC (stereo not drawn) | 0.646 ± 2.2
CC1=CC(C)(C)N2C(=O)C3(NCCc4c3[nH]c3ccccc43)c3cc(C)cc1c32 (stereo not drawn) | 1.81 ± 1.6
O=C(/C=C/c1ccco1)NCc1ccc2c(c1)OCO2 | -1 ± 5.2
O=C(Nc1ccc(Cl)cn1)Nc1ccccc1Cl | 38.1 ± 2.5
O=C(O)/C=C/c1ccc(O)c(O)c1 | -4.83 ± 0.88
O=C(/C=C/c1ccco1)N1CCN(c2ccccc2)CC1 | 6.71 ± 0.18
COc1cc2c(cc1OC)C(=S)NC(C)(C)C2 | -9.01 ± 2.9
COc1ccc(C2NC(=O)c3ccccc3N2)cc1OC (stereo not drawn) | 37.3 ± 2.5
CN1C(=O)C(O)(CC(=O)c2ccccc2O)c2cc(Br)ccc21 (stereo not drawn) | 2.73 ± 4.5
CC(=O)OC[C@H]1O[C@@H](n2ncc(=O)[nH]c2=O)[C@H](OC(C)=O)[C@@H]1OC(C)=O | -0.15 ± 22
Fc1ccc(NC(=S)Nc2ccccc2Cl)cc1 | 3.06 ± 3.4
O=C(O)C1Sc2[nH]c(=O)sc2C2c3ccc(O)cc3OC(=O)C12 (stereo not drawn) | -3.23 ± 3.2
NS(=O)(=O)c1ccc(CNC(=O)c2cc(-c3ccccc3)nc3ccccc23)cc1 | -6.99 ± 3.5
COc1ccc(C(=O)Oc2ccc3c(C)cc(=O)oc3c2C(C)=O)cc1 | 19 ± 11
